In PubChem BioAssay AID1745853 (National Center for Advancing Translational Sciences (NCATS), 2022) one finds activity change, negative = inhibition data, which are given here for 30 compounds.

SMILES strings stand for the structures. Some of the results follow. Shown are side measurements of this screen, not its main read-out; they come without a call.

Assay in all cases: Primary Screen for Target Class Profiling of Small Molecule Inhibitors of Methyltransferases
The target of assay [1] is Glycine N-methyltransferase (Homo sapiens) (UniProt Q14749). Particulars: purified enzyme, MTase-Glo SAH luminescence; measured here: GNMT inhibition; at 40 µM; stronger effect = lower value. Summed up:
(§1)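 Each enzyme was assayed with SAM and its substrate. SAH formation detected by MTase-Glo luminescence; single-point 40 uM screen[…].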

Assay [2] deals with Guanidinoacetate N-methyltransferase (Homo sapiens) (UniProt Q14353). Particulars: purified enzyme, MTase-Glo SAH luminescence; measured here: GAMT inhibition; at 40 µM; stronger effect = lower value. The procedure, abridged:
as §1

Assay [3] deals with Histamine N-methyltransferase (Homo sapiens) (UniProt P50135). The conditions noted are these: purified enzyme, MTase-Glo SAH luminescence; measured here: HNMT inhibition; at 40 µM; stronger effect = lower value. The procedure, abridged:
as §1

The target of assay [4] is Nicotinamide N-methyltransferase (Homo sapiens) (UniProt P40261). The conditions noted are these: purified enzyme, MTase-Glo SAH luminescence; measured here: NNMT inhibition; at 40 µM; stronger effect = lower value. The procedure, abridged:
as §1

Assay [5] addresses Phenylethanolamine N-methyltransferase (Homo sapiens) (UniProt P11086). The conditions noted are these: purified enzyme, MTase-Glo SAH luminescence; measured here: PNMT inhibition; at 40 µM; stronger effect = lower value. Summed up: as §1
On the % scale 0 is the no-effect control and ±100 the full control effect.

For the compound `Cc1nnc([C@H]2CCN(C(=O)c3ccccc3)C2)o1`, the activity change, negative = inhibition in assay [1] was -0.488%; in assay [2], 2.17%; in assay [3] it was 0.131%; in assay [4] it was -5.31%; in assay [5], 12.7%.

Consider `Cc1cnc(C(=O)NC2C[C@H]3CC[C@@H](C2)N3C(=O)c2ccccc2C)cn1` (some centres undefined), for which the activity change, negative = inhibition in assay [1] is -1.54%; in assay [2], 2.59%; in assay [3], 1.25%; in assay [4], -5.95%; in assay [5], -0.016%.

For `CC(C)(C(=O)NCC(F)(F)C(F)(F)F)C(=O)NC1C(=O)Nc2ccccc2-c2ccccc21` (centres undefined), the figures for the activity change, negative = inhibition in assay [1] and in assay [3] were 5.01% and 6.3%, respectively.

For `CC(C)CCn1c(=O)c2ccc(C(=O)NCC(C)C)cc2n2c(=O)n(CC(=O)N(C)c3ccccc3)nc12`, the activity change, negative = inhibition in assay [1] is -0.349%; in assay [2], 0%; in assay [3], 6.34%; in assay [4], -10.2%; in assay [5] it was 1.21%.

As to `Cc1ccc(C)c(OCc2cc(C(=O)N3CCC(N4CCSCC4)CC3)no2)c1`, the activity change, negative = inhibition in assay [1] was -1.4%; in assay [2] it was -4%; in assay [3] it was -2.81%; in assay [4] it was -8.44%; in assay [5], 0.764%.

As for `Cn1c(=O)c2ccc(C(=O)NC3CCCC3)cc2n2c(SCc3ccc(Cl)cc3)nnc12`, the activity change, negative = inhibition in assay [1] was -7.78%; in assay [2], -0.249%; in assay [3], -0.388%; in assay [4], 1.57%; in assay [5], -0.056%.

For `COC(=O)[C@@]1(C)CC[C@]2(C(=O)O[C@@H]3O[C@H](CO)[C@@H](O)[C@H](O)[C@H]3O)CC[C@]3(C)C(=CCC4[C@@]5(C)CC[C@H](O[C@@H]6O[C@H](C(=O)O)[C@@H](O)[C@H](O)[C@H]6O)C(C)(C)C5CC[C@]43C)[C@@H]2C1` (some centres undefined), the activity change, negative = inhibition in assay [1] is 0%; in assay [2] it was -8.15%; in assay [3], 6.04%; in assay [4] it was -23.6%; in assay [5], -9.15%.

Turning to `COC(=O)c1cc2n(n1)CC(C)(C(=O)NC1CCCCCC1)N(c1cc(C)ccc1C)C2=O` (centres undefined), the activity change, negative = inhibition in assay [1] is -0.753%; in assay [2], -1.72%; in assay [3], -18.8%; in assay [4], 1.71%; in assay [5], -0.579%.

`N#Cc1cccc(S(=O)(=O)N[C@@H]2CCOC[C@H]2OCc2cscn2)c1`: the activity change, negative = inhibition in assay [1] was -6.4%; in assay [2], -3.42%; in assay [3], -0.775%; in assay [4] it was -6.23%; in assay [5], 1.34%.

Regarding `O=C([C@H](O)c1ccccc1)N1CCc2onc(-c3cccc4ccccc34)c2C1`, the activity change, negative = inhibition is -11.8% in assay [1]; -6.62% in assay [2]; -7.36% in assay [3]; -21.3% in assay [4]; -1.65% in assay [5].

As to `COc1ccc2cc3n(c2c1)CC(C)(C(=O)NC1CCCCC1)N(CCCN1CCOCC1)C3=O` (centres undefined), the activity change, negative = inhibition is 3.34% in assay [1]; 1.38% in assay [2]; -0.834% in assay [3]; 0.923% in assay [4]; -3.33% in assay [5].

Turning to `CC[C@H](CO)Nc1nc(NCc2ccc(-c3ccccn3)cc2)c2ncn(C(C)C)c2n1`, the activity change, negative = inhibition was -9.45% in assay [1]; -3.08% in assay [2]; 6.5% in assay [3]; -33.6% in assay [4]; -5.65% in assay [5].

For `CCOC(=O)CNC(=O)N1Cc2c(sc3c2CCCC3)-n2cccc2C1c1cccc(OC)c1` (centres undefined), the activity change, negative = inhibition is -3.26% in assay [1]; 2.2% in assay [2]; -2.24% in assay [3]; -10.5% in assay [4]; 1.65% in assay [5].

Consider `Cn1c(=O)n(C)c2cc(S(=O)(=O)Nc3ccccc3)ccc21`, for which the activity change, negative = inhibition is -3.01% in assay [1]; 2.07% in assay [2]; 1.88% in assay [3]; 5.54% in assay [4]; 0.031% in assay [5].

For `COc1ccc(-n2nc3n(c2=O)CCN([S+](=O)([O-])c2c(C)noc2C)C3)cc1`, the activity change, negative = inhibition was -9.15% in assay [1]; -9.5% in assay [2]; -3.06% in assay [3]; -19.9% in assay [4]; -9.85% in assay [5].

For `COc1cccc(NC(=O)N2Cc3c(sc4c3CCCC4)-n3cccc3C2c2cccc(OC)c2)c1` (centres undefined), the activity change, negative = inhibition is 0.722% in assay [1]; 1.75% in assay [2]; 8.03% in assay [3]; -1.62% in assay [4]; 6.47% in assay [5].

Turning to `C=C(C(=O)O)[C@@H]1CC[C@@]2(C)CC[C@@H](O)C(=C)C2C1` (some centres undefined), the activity change, negative = inhibition in assay [1] was 0.963%; in assay [2] it was -1.41%; in assay [3] it was 4.02%; in assay [4], -12.6%; in assay [5] it was -2.41%.

For `COc1ccc(CCNC(=O)c2ccc3c(=O)nc4c(-c5cccc(F)c5)n[nH]n4c3c2)cc1OC`, the activity change, negative = inhibition in assay [1] was -44.1%; in assay [2] it was -2.12%; in assay [3], -8.98%; in assay [4], -6.64%; in assay [5] it was -9.55%.

Turning to `CN1C(=O)c2cc(C(=O)NCc3ccc(F)cc3)nn2CC1(C)C(=O)NC1CCCCC1` (centres undefined), the activity change, negative = inhibition turned out to be 4.47% in assay [1]; 3.14% in assay [2]; 0.519% in assay [3]; 3.11% in assay [4]; 1.65% in assay [5].

Regarding `CCCn1c(=O)c2ccccc2n2c(=O)n(CC(=O)N3CCN(c4ccc(F)cc4)CC3)nc12`, the activity change, negative = inhibition in assay [1] was 2.38%; in assay [2], 0%; in assay [3], 5.08%; in assay [4], -7.46%; in assay [5] it was 2.8%.

`CC1CC(=O)C2=C(O1)OC1(C)CCC3C(C)(C)C4OC4C(=O)C3(C)C1C2` (centres undefined): the activity change, negative = inhibition in assay [1] is 2.4%; in assay [2] it was 3.21%; in assay [3], 9.89%; in assay [4], -95%; in assay [5], -0.403%.

With `CC(=O)N1CCC(Cc2ccc(CN(C(=O)CCc3ccccc3)C3CC3)cc2)CC1`, the activity change, negative = inhibition is -10.1% in assay [1]; -0.068% in assay [2]; -5.01% in assay [3]; -16.6% in assay [4]; -2.35% in assay [5].

For the compound `CCCSCCCN1C(=O)c2cc3ccccc3n2CC1(C)C(=O)NC1CCCCC1` (centres undefined), the activity change, negative = inhibition in assay [1] was -5.85%; in assay [2] it was 5.27%; in assay [3], -4.53%; in assay [4] it was -1.28%; in assay [5] it was -3.33%.

For the compound `COC1CC(O[C@H]2CC[C@@]3(C)C(=CC[C@]4(O)C3[C@H](O)[C@@H](O)[C@]3(C)[C@@H]([C@H](C)O)CC[C@@]34O)C2)OC(C)C1OC1CC(OC)C(OC2CC(OC)C(OC3OC(C)C(OC4OC(CO)C(O)C(O)C4O)C(OC)C3O)C(C)O2)C(C)O1` (some centres undefined), the activity change, negative = inhibition is 0% in assay [1]; 3.02% in assay [2]; 12.2% in assay [3]; -8.64% in assay [4]; -1.54% in assay [5].

On to `C[C@@H]1CN(Cc2ccc(F)cc2)[C@@H](C)CN1C(=O)c1cc2c(C(=O)C(=O)N(C)C)cn(C)c2cc1Cl`, for which the activity change, negative = inhibition is 0.062% in assay [1]; 8.81% in assay [2]; 9.95% in assay [3]; -13.2% in assay [4]; 8.26% in assay [5].

Take `CNC(=O)c1ccccc1Nc1nc(Nc2ccc3c(c2OC)CCC[C@@H](N2CCN(CCO)CC2)C3)ncc1Cl`: the figures for the activity change, negative = inhibition in assay [1] and in assay [3] were -14.3% and -33.6%, respectively.

For `Cc1ccc(C)c(NC(=O)Cn2ccn3nc4c(c3c2=O)CCCCC4)c1`, the activity change, negative = inhibition in assay [1] was -3.54%; in assay [2], -3.56%; in assay [3], 0.077%; in assay [4], -9.72%; in assay [5], -5.7%.

Regarding `O=C(c1nc(-c2ccsc2)c2cnccn12)N1CCCC1`, the activity change, negative = inhibition in assay [1] is -10.6%; in assay [2] it was -7.37%; in assay [3], -11%; in assay [4], -26.4%; in assay [5], -4.38%.

Turning to `CC(C(=O)N1CCc2onc(-c3ccc(F)c(F)c3)c2C1)n1ccnc1` (centres undefined), the activity change, negative = inhibition in assay [1] is -3.16%; in assay [2] it was -1.19%; in assay [3], 0.75%; in assay [4] it was 0.367%; in assay [5], 2.81%.

With `CCNC(=O)N1CCC(Oc2ncccc2C(=O)N2CCCCC2)C1` (centres undefined), the activity change, negative = inhibition is -1.49% in assay [1]; -0.248% in assay [2]; 1.31% in assay [3]; -5.45% in assay [4]; -2.02% in assay [5].
